Measured values as given in the supplement of paper PMC8728848.
The other results are listed elsewhere or left out.

Assays:
Assay in all cases: glycan array binding signal (z-score within array); higher = stronger binding
Conditions in all cases: glycan notation: IUPAC condensed, linker removed
[1] = target: Fuc(a1-2)Gal(b1-4)GlcNAc(b1-3)Gal(b1-4)GlcNAc(b1-3)Gal(b1-4)GlcNAc
Summary of the method: (§1)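 Glycan array data came from 3228 arrays in the Consortium for Functional Glycomics database, and only arrays with an available protein sequence were kept. Glycan names were put into IUPAC-condensed notation, and columns mapping to the same glycan were averaged. The binding signal is a within-array Z-score, averaged across arrays of one protein sequence run at different concentrations or buffers and across linkers. A negative Z-score can be read as non-binding.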

[2] = target: Fuc(a1-2)Gal(b1-4)GlcNAc(b1-3)GalNAc
Summary of the method: as §1

[3] = target: Fuc(a1-2)Gal(b1-4)GlcNAc(b1-3)[Fuc(a1-2)Gal(b1-4)GlcNAc(b1-6)]GalNAc
Summary of the method: as §1

[4] = target: Fuc(a1-2)Gal(b1-4)GlcNAc(b1-3)[Fuc(a1-3)[Gal(b1-4)]GlcNAc(b1-6)]Gal(b1-4)Glc
Summary of the method: as §1

[5] = target: Fuc(a1-2)Gal(b1-4)GlcNAc(b1-6)GalNAc
Summary of the method: as §1

[6] = target: Fuc(a1-2)Gal(b1-4)GlcNAc6S
Summary of the method: as §1

[7] = target: Fuc(a1-2)Gal(b1-4)[Fuc(a1-3)]GlcNAc
Summary of the method: as §1

[8] = target: Fuc(a1-2)Gal(b1-4)[Fuc(a1-3)]GlcNAc(b1-2)Man(a1-3)[Fuc(a1-2)Gal(b1-4)[Fuc(a1-3)]GlcNAc(b1-2)Man(a1-6)]Man(b1-4)GlcNAc(b1-4)[Fuc(a1-6)]GlcNAc
Summary of the method: as §1

[9] = target: Fuc(a1-2)Gal(b1-4)[Fuc(a1-3)]GlcNAc(b1-2)[Fuc(a1-2)Gal(b1-4)[Fuc(a1-3)]GlcNAc(b1-4)]Man(a1-3)[Fuc(a1-2)Gal(b1-4)[Fuc(a1-3)]GlcNAc(b1-2)Man(a1-6)]Man(b1-4)GlcNAc(b1-4)GlcNAc
Summary of the method: as §1

[10] = target: Fuc(a1-2)Gal(b1-4)[Fuc(a1-3)]GlcNAc(b1-3)Gal(b1-4)[Fuc(a1-3)]GlcNAc
Summary of the method: as §1

[11] = target: Fuc(a1-2)Gal(b1-4)[Fuc(a1-3)]GlcNAc(b1-3)Gal(b1-4)[Fuc(a1-3)]GlcNAc(b1-3)Gal(b1-4)[Fuc(a1-3)]GlcNAc
Summary of the method: as §1

[12] = target: Fuc(a1-2)Gal(b1-4)[Fuc(a1-3)]GlcNAc(b1-3)GalNAc
Summary of the method: as §1

[13] = target: Fuc(a1-2)Gal(b1-4)[Fuc(a1-3)]GlcNAc(b1-3)[Neu5Ac(a2-6)Gal(b1-4)GlcNAc(b1-6)]Gal(b1-4)Glc
Summary of the method: as §1

[14] = target: Fuc(a1-2)Gal3S(b1-4)GlcNAc
Summary of the method: as §1

[15] = target: Fuc(a1-2)Gal6S(b1-3)GlcNAc
Summary of the method: as §1

[16] = target: Fuc(a1-2)Gal6S(b1-3)GlcNAc6S
Summary of the method: as §1

Fuc(a1-2)Gal6S(b1-4)Glc = target: Fuc(a1-2)Gal6S(b1-4)Glc
Summary of the method: as §1

[17] = target: Fuc(a1-2)Gal6S(b1-4)Glc6S
Summary of the method: as §1

Fuc(a1-2)[Gal(a1-3)]Gal = target: Fuc(a1-2)[Gal(a1-3)]Gal
Summary of the method: as §1

[18] = target: Fuc(a1-2)[Gal(a1-3)]Gal(b1-3)GalNAc
Summary of the method: as §1

[19] = target: Fuc(a1-2)[Gal(a1-3)]Gal(b1-3)GalNAc(b1-3)Gal(a1-4)Gal(b1-4)Glc
Summary of the method: as §1

[20] = target: Fuc(a1-2)[Gal(a1-3)]Gal(b1-3)GlcNAc
Summary of the method: as §1

[21] = target: Fuc(a1-2)[Gal(a1-3)]Gal(b1-3)GlcNAc(b1-2)Man(a1-3)[Fuc(a1-2)[Gal(a1-3)]Gal(b1-3)GlcNAc(b1-2)Man(a1-6)]Man(b1-4)GlcNAc(b1-4)GlcNAc
Summary of the method: as §1

[22] = target: Fuc(a1-2)[Gal(a1-3)]Gal(b1-3)GlcNAc(b1-2)Man(a1-3)[Fuc(a1-2)[Gal(a1-3)]Gal(b1-3)GlcNAc(b1-2)Man(a1-6)]Man(b1-4)GlcNAc(b1-4)[Fuc(a1-6)]GlcNAc
Summary of the method: as §1

[23] = target: Fuc(a1-2)[Gal(a1-3)]Gal(b1-3)GlcNAc(b1-3)GalNAc
Summary of the method: as §1

[24] = target: Fuc(a1-2)[Gal(a1-3)]Gal(b1-3)GlcNAc(b1-6)GalNAc
Summary of the method: as §1

[25] = target: Fuc(a1-2)[Gal(a1-3)]Gal(b1-4)Glc
Summary of the method: as §1

[26] = target: Fuc(a1-2)[Gal(a1-3)]Gal(b1-4)GlcNAc
Summary of the method: as §1

[27] = target: Fuc(a1-2)[Gal(a1-3)]Gal(b1-4)GlcNAc(b1-2)Man
Summary of the method: as §1

[28] = target: Fuc(a1-2)[Gal(a1-3)]Gal(b1-4)GlcNAc(b1-2)Man(a1-3)[Fuc(a1-2)[Gal(a1-3)]Gal(b1-4)GlcNAc(b1-2)Man(a1-6)]Man(b1-4)GlcNAc(b1-4)GlcNAc
Summary of the method: as §1

B1: FliD (Clostridium difficile) (protein)
chain: MSSISPVRVTGLSGNFDMEGIIEASMIRDKEKVNKAKQDQQIVKWKQEIYRDIIKESKNLYDKYLNGDSPNSITNKKAYSATRITSSDESIIVAKGSAGAEKINYQFAVSQMAEPAKVTIKLNSSDPIVQQFPPNASGASSLNIGGVNIPISEQDTTSTIVSKINSLCADNDIRASYSEMTGELIISRKQTGSSSDIDLKVIGNDSLAGQIASDNGITFTTDASGTKSAVVYGKNLEADVTDDQGRVTHISKEQNSFKIDNIDYNVNSKGSAKLVSVTDTEEATKNMKAFVDDYNALMDKVYGLVTTKKSKDYPPLTDEQKDDMTTEEIEKWEKKAKEGILRNDDELRAFVEDIQSMFFGDADTIIALRKLGISEHENYNKKGQISFNADTFSKALIDDSDKVYKALAGYSSNYDDKGMFEKLKKIVFEYSGSSASKLTKKAGMENSSSASQNVYSKQIAEQERNISRLVEKMNDKEKRLYAKYSALESLLNKYSSQMNYFSQAQGN
glycan array binding signal (z-score) [1]: -0.143
glycan array binding signal (z-score) [2]: -0.058
glycan array binding signal (z-score) [3]: 0.249
glycan array binding signal (z-score) [4]: -0.179
glycan array binding signal (z-score) [5]: -0.181
glycan array binding signal (z-score) [6]: -0.089
glycan array binding signal (z-score) [7]: -0.129
glycan array binding signal (z-score) [8]: -0.162
glycan array binding signal (z-score) [9]: -0.159
glycan array binding signal (z-score) [10]: -0.208
glycan array binding signal (z-score) [11]: -0.203
glycan array binding signal (z-score) [12]: 0.062
glycan array binding signal (z-score) [13]: -0.249
glycan array binding signal (z-score) [14]: -0.206
glycan array binding signal (z-score) [15]: -0.154
glycan array binding signal (z-score) [16]: 0.242
glycan array binding signal (z-score) (Fuc(a1-2)Gal6S(b1-4)Glc): -0.076
glycan array binding signal (z-score) [17]: -0.07
glycan array binding signal (z-score) (Fuc(a1-2)[Gal(a1-3)]Gal): -0.182
glycan array binding signal (z-score) [18]: -0.128
glycan array binding signal (z-score) [19]: 0.02
glycan array binding signal (z-score) [20]: 1.88
glycan array binding signal (z-score) [21]: -0.206
glycan array binding signal (z-score) [22]: -0.168
glycan array binding signal (z-score) [23]: -0.226
glycan array binding signal (z-score) [24]: -0.221
glycan array binding signal (z-score) [25]: -0.107
glycan array binding signal (z-score) [26]: -0.224
glycan array binding signal (z-score) [27]: -0.225
glycan array binding signal (z-score) [28]: -0.031
